According to the RNAGym collection of RNA variant scans (doi:10.7554/elife.90254):
Read counts are not given, so values of variants with three or more changes are uncertain.

B1: LINE1-mini (parent)
chain: GGCAGAGCUCAACACAGCGUGGCAAAGUGGCUGUGGCUAGACUGCC

Variants of: B1
Experiment: self-cleavage, relative activity (ratio to wild type); higher = more cleavage; in vitro, sequencing; the parent is a self-cleaving ribozyme

Variant	self-cleavage
C3U A11U G21U U34G A39U	0.02
C3G C10A U28G C37A	0.04
C3U C13A C23U	0.15
C3U C10G G27C G29U	0.02
C3U A6G A14C G21U	0.04
C3U A4U A6G C10U	0.03
C3G G5A G40C C45A	0.09
C3G C15G U28G U34A C37G U38A C42A	0.02
C3U A4C A12G C31A G33U G35A	0.05
C3G C15U U32C G40U	0.18
C3G C8U C31G	0.96
C3U C15U C23A G30A A39U	0.04
C3G G30C U43C	0.05
C3G U9A C15A A24U	0.68
C3G C18A U43A G44C	0.08
C3G C23A G40U	0.21
C3U C13A A25C G29C C31G	0.16
C3G G5U G35A	0.03
C3G G7U U20A G27C	0.32
C3G G7U C13U A14C G33C	0.06
C3G C10G C13G	0.01
C3U C13A G19C A25C G30A G35U	0.05
C3G G19U C23G G30A	0.76
C3U A16U C37A	0.14

Variant	self-cleavage
C3U A6C G7A C15U G17C C18A	0.36
C3G G17A C18G G19U C46A	0.05
C3G A39U C45G	0.1
C3U A14G A25G	0.07
C3U C18U A25C A26C U28A G35C	0.1
C3U C8G A26C	0.04
C3U C8G C10A G33A C37G G40U	0.03
C3G C13U G35A	0.21
C3G G17C G22U G33U U38C G40C	0.01
C3U A16G G29U A39U	0.06
C3U C10U A24C G36A	0.06
C3U A12U C15U U20C G29C G30A	0.12
C3U C13A A16G A26G	0.02
C3G C18U U34C A41U	0.14
C3U A4U A11U	0.04
C3G C15U G22U G30C G44A	0.26
C3U C18U G40U	0.04
C3G A14G C15A G36A	0.19
C3G G5U A11C A12C G33C	0.07
C3U C8A C23U U28C C45U	0.3
C3U A16U G17A U32A C45G	0.17
C3G G19C G27A U32A	0.62
C3U A4G U32G	0.02
C3U C8G G17U G21C	0.11

Variant	self-cleavage
C3U A6C A12G G17A	0.07
C3G G35C U38C	0.03
C3G C10G G21U	0.03
C3G A16G U20G G36C U43A	0.04
C3U C8G A12G A16C A25C G40A	0
C3G C8U C18G C42A	0.32
C3G G19A C23G G33A U34C G35U	0.11
C3U C15G G19A	0.03
C3U C15G G19U	0.01
C3G G29A C46A	0.21
C3G C10A G17A A26C G33U	0.05
C3U C18U G30C C45U	0.41
C3G A14G C23A	0.26
C3G G19A G29A U43A	0.46
C3G A14G G21A	0.47
C3G C8A C15U G27U U34G	0.26
C3U A6G C15G G17A A26U G27C G29C U32A U43C	0.01
C3G C31A G35C	0.02
C3G G19C G33C	0.09
C3U C13G G30C	0.07
C3G A14G G40U	0.09
C3U C8U U9G G19U G36U U38C	0.05
C3G C37G U38C A39G C45G	0.06
C3G A24U C37A C42G C46G	0.03

Variant	self-cleavage
C3G C8A G27U G36A	0.13
C3G C10A G44U	0.05
C3G G27U G35U A41C	0.11
C3U G5C A6G	0.01
C3U A11G U20G G21U U28A A39U G44A	0.02
C3U G5A A6U	0.01
C3G C8A C10G G19C G33A G35C	0.01
C3U A16C U32G	0.08
C3U C15A A16G G44U C45U	0.09
C3U A4U C45A	0.14
C3G C23G U28C	0.11
C3G C23G U34A	0.16
C3U A4U G17C G44A	0.02
C3G A41U G44A	2.14
C3U A16G U20A A26G	0.03
C3U A6U G17U A39G	0.07
C3U C13G G17C	0.09
C3G G5A C8U C13A	0.2
C3U A11U C45A C46G	0
C3G C31A G33U	0.15
C3G G7U C8G C15A U20C C23A C42U U43G	0.21
C3G U28A C31U A39G G40U A41C	0.05
C3U A14C U28G G29U A39G	0.03
C3G U28G C31G G33U C37U	0.03

Variant	self-cleavage
C3G A26U U38C	0.06
C3G G19A U28A	0.17
C3U A4G G5C G7U G22U A26C	0.36
C3U G5A G30A A41C	0.11
C3G C8U A11U U20C	0.04
C3U A4G G22U	0.24
C3G G17A G29U C31U	0.06
C3G C8U U9C C10G C31U U34C	0.03
C3U A6G A11U A39U G44A	0.01
C3U A11G G17A A24U C31A	0.02
C3U G5A A6U A11G C37A C42A	0.02
C3G C18U G35C	0.11
C3U A6C G7C	0.14
C3G A25U A39U	0.26
C3U C10A A16U	0
C3G C15G C23A U38C	0.04
C3G G7A C15A A16G	0.1
C3G U20C U28G	0.45
C3G C10G C18A A25G C45A	0
C3U A14C C18U G36A A41U	0.27
C3G U28A C31A G36C U38A U43A	0.12
C3G C15A G35C	0.02
C3G C37U U43C	0.07
C3G G17C C31G G36C	0.04

Variant	self-cleavage
C3G C31G U38A	0.04
C3G C8A A12G C15A G33A G35U	0.13
C3U A12C C45A	0.05
C3G G21U U28A C37A	0.06
C3G G5U G21U G33U	0.06
C3U A6U A11C C18U G19A G30A	0.01
C3G U28C C31A	0.2
C3G A14G U28C U34A G36C G40A C45A	0.14
C3G C18U C23G C46A	0.17
C3U A16C C31U G33C G40U U43A C45G C46U	0.01
C3G C18A G29U G30C G33A	0.02
C3U C8U C18U G27A U38A C42A	0.07
C3U A39G C45G	0.02
C3U A16C U20A G29C U32C	0.06
C3G C8G C13U C15A	0.09
C3G C10A C15A U32A A39C	0.03
C3G A25C G27C G30U G33U	0.06
C3G C8U G19U G30A	0.36
C3U A16G G35U C37A U43A G44A	0.02
C3G G7C U38G	0.05
C3G C8G G30U	2.81
C3G G21U G40C	0.17
C3U A4G C8U A11G C13U	0.01
C3G C15U A16G G19A C31G	0.17

Variant	self-cleavage
C3G G5U U28A	0.16
C3U A26C G44C C45A	0.02
C3G C15U U20A	0.16
C3G C10A A12U G40C	0.05
C3G G19U G35C	0.07
C3U C8G C15A	0.31
C3U C13U C37A C45U	0.42
C3U A6U U34A C37G	0.02
C3G C10U G22A	0.62
C3G A16U A24G	0.04
C3G C10U G21U G33C A41U	0.04
C3U C10U C18G	0.05
C3U A14C G19C A26U G44U	0.07
C3G U28C G36A	1.13
C3G C10U C15A C18A U28G	0.03
C3U A14C G22U A24U U28A C31G	0.03
C3U A12U G22U C23A C31A G36C	0.02
C3G G19C G35A C37U U38A	0.02
C3U C8U U9G G19U	0.13
C3U C18G G29U G44A	1.37
C3U C10U G29C	0.07
C3G G27A C46A	0.11
C3G G27A C31U	0.15
